# Test results reported in the supplement of paper PMC3334620.
# Over roughly 33,000 sequences, “E-score (-0.5 to 0.5)” has its median near -0.056; the highest 2% begin near 0.38. Some of the results follow.
# Molecular target: Stb4 (UniProt P50104)
# Assay: PBM E-score (8-mer binding enrichment) (E-score (-0.5 to 0.5)); higher = stronger / more preferred TF binding; most listed sequences are background and not binding sites
# Settings: protein concentration: 200 nM; construct: GST-DNA-binding domain
# Outline: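 Yeast transcription factors, full-length or as DNA-binding domains, were expressed with a GST tag using PURExpress in vitro transcription/translation. At about 100-200 nM they were applied to universal all-10-mer Agilent arrays, double-stranded by primer extension on fresh or once-stripped slides. Fluorescent anti-GST detected bound protein, and masliner normalised the scans. E-scores for ungapped eight-base words, pooled with reverse complements, came from the Universal PBM Analysis Suite.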
row,Sequence,PBM E-score
1,TAGATGCA,-0.222
2,TGCGGAAA,0.299
3,AGTCGCGG,0.0578
4,CACTAGAG,-0.16
5,ACGTTACA,-0.325
6,TCTCGAAA,-0.251
7,CGGGCTAG,0.136
8,GGTGGAAC,-0.148
9,AACAGCGG,0.097
10,TACTCAAA,-0.108
11,CCGTGTTC,0.236
12,CCAGCCTA,-0.221
13,ACCGATCA,0.231
14,ACTTTGCA,-0.17
15,ATTGGTAC,-0.0858
16,AACGAATC,0.143
17,TACATGCA,-0.209
18,CCCTTCCA,-0.11
19,ACGATATC,-0.0902
20,GATTGAAC,-0.0809
21,ACCCAACT,-0.227
22,AATTGTTA,-0.107
23,CAATAAAC,0.0616
24,AACCCCGC,-0.0105
25,CAAAAACA,-0.0724

row,Sequence,PBM E-score
1,AATGCTCG,0.031
2,CCCCGCAA,0.0416
3,CCACCTTC,-0.0877
4,GGTTCGAA,-0.0143
5,CAGTGAGG,-0.244
6,CCTCTCAA,-0.0748
7,AGTCCCAT,-0.202
8,TCTGTCCA,0.0331
9,CGGATTTC,0.318
10,AGAGTTTC,0.0683
11,GAACCCTA,-0.0858
12,CAGGAGTA,-0.0722
13,AAATCTCG,0.202
14,TCAGGGGA,-0.27
15,GTCCGCAC,-0.045
16,CAATTGCA,-0.0781
17,GATGAGCA,-0.0393
18,ACGGACGT,0.0696
19,CACAAAGC,-0.102
20,AATAGAAA,-0.0832
21,ACAAGCAG,-0.159
22,CACTTGCG,-0.102
23,ATGTGCGC,-0.117
24,AGGCGTAG,-0.15
25,CCCGACCA,0.282

row,Sequence,PBM E-score
1,CGCTCGGC,0.412
2,CAGTGGAG,-0.0704
3,CGGCTTCA,0.23
4,TATCTACA,0.0195
5,CCGCCATC,0.0682
6,GAGGTAAC,-0.0452
7,ACAAGAAC,0.101
8,GTTGATTA,0.0444
9,CAGCACAA,-0.0332
10,ACGGGGCT,-0.0557
11,CTAATCAG,0.00472
12,ATACTGTG,-0.131
13,ATTACTCG,-0.0138
14,ATCATTAC,-0.0186
15,ATAGTCGC,-0.076
16,CAACCCTA,-0.0513
17,CGTGGCTC,-0.169
18,ATGTGAGA,-0.03
19,ACCACTCA,-0.272
20,CCGCATTC,0.177
21,CCTCGCCC,-0.0701
22,AAGCCAGC,-0.154
23,CCGGCCTA,0.167
24,CTTCTATC,-0.0159
25,CGCGGCCA,0.0292

row,Sequence,PBM E-score
1,AGAACTTG,-0.161
2,AATGGCTG,-0.0957
3,GTAGCTTA,-0.238
4,CATCCTCC,0.0552
5,ATACTCAC,-0.04
6,CGTACATC,0.0586
7,ATGAGGGG,-0.126
8,GAGTAAGC,-0.0417
9,ACACATCG,-0.144
10,CATAAACG,-0.0894
11,ATAACGGC,0.108
12,CTGTCGCA,-0.0387
13,ATTGCTTA,-0.0483
14,ACCAGAAT,-0.109
15,ATTTGCAC,-0.265
16,CAGCTTAG,-0.18
17,GGCGTCAA,-0.0556
18,ACCCGCAT,0.275
19,ATTTTGTG,0.0933
20,GCCCGCCA,0.143
21,CCACAGCG,-0.122
22,GCACATGC,0.0181
23,GATTAGAC,0.0134
24,CCGGATTA,0.319
25,AGCGGACC,0.101

row,Sequence,PBM E-score
1,GGTGCTAC,-0.152
2,CTCTACAA,-0.115
3,GGGTCAGA,-0.126
4,AGATACAA,-0.131
5,CACCGAGA,0.222
6,CCAACTGC,-0.0394
7,AAGCGGGA,0.181
8,ACAGCGGA,0.123
9,AACCGCAC,-0.0246
10,CCTTGATC,-0.0616
11,CGCCCCAG,0.011
12,ACATGAAG,-0.122
13,CATCATTA,0.0196
14,CACAATGG,-0.0734
15,GAGCATGC,-0.106
16,AGCATATA,0.0336
17,AGCGGCGG,0.21
18,TTATATAA,0.0856
19,CTAATATC,0.0519
20,GCCAGATA,-0.0105
21,CCGTCAGC,0.162
22,ACCATCAA,-0.197
23,CTCACTAA,-0.092
24,CGCTCAGA,-0.0204
25,CCTTCGGA,0.474

row,Sequence,PBM E-score
1,AACTGCCA,-0.263
2,AGCGCATA,-0.108
3,CTTAGGTC,0.0896
4,ATCCCACG,-0.0952
5,AGCATACG,-0.0677
6,CCTATAGC,-0.281
7,ACGTCATA,-0.0342
8,GATGGCAA,0.061
9,GGACGGAC,0.232
10,AGTCCTTG,-0.132
11,CGCCGCTA,0.0587
12,AGTGCCCA,-0.0734
13,TAAAGCTA,-0.339
14,GCAAGAAA,0.0868
15,ATCGTATC,0.0416
16,AACTGCCG,0.342
17,CGCAAGAA,0.0756
18,CCGAGACG,0.41
19,AATACCGG,0.307
20,GCACAGTA,-0.152
21,CGACTTTC,0.119
22,CATGGGAC,-0.24
23,AACGGTCA,0.0935
24,GCAGGGCC,-0.107
25,TAGATACA,-0.29

row,Sequence,PBM E-score
1,AAGGCGTC,-0.0387
2,GTCGAGGA,-0.239
3,ACCATGCC,0.0929
4,AACCACAG,-0.177
5,CAGGCCGG,0.0967
6,GCCGTACC,0.283
7,ACGAAATA,-0.111
8,ATCGTCAG,-0.252
9,ATCACTGA,-0.231
10,CTACTGCA,-0.329
11,CGCCTGTC,-0.141
12,CAGTCAGG,-0.175
13,CAAGAGAG,-0.164
14,GAAATATA,0.147
15,CCTCGCAG,-0.233
16,ACGCCAAT,-0.0738
17,ATTGTGAG,-0.0285
18,AATAGACG,-0.0479
19,CAGTCCGA,0.308
20,CCTGCCCA,-0.093
21,CCGTGGAG,0.155
22,CTGTAAAG,-0.206
